This note sets out measurements from paper PMC4336329 (PLoS ONE, 2015).

Among all 310,000 compounds or so, about 2,200 (0.71%) showed an effect of 50% or more. Effects have a minus sign here. This is one part of the list.

In this assay the target is human ether-à-go-go-related gene (hERG) potassium channel (human, UniProt Q12809). Description: primary screen, population patch clamp on CHO cells stably expressing hERG.
human ether-à-go-go-related gene (hERG) potassium channel, sequence (Q12809 whole entry, looked up): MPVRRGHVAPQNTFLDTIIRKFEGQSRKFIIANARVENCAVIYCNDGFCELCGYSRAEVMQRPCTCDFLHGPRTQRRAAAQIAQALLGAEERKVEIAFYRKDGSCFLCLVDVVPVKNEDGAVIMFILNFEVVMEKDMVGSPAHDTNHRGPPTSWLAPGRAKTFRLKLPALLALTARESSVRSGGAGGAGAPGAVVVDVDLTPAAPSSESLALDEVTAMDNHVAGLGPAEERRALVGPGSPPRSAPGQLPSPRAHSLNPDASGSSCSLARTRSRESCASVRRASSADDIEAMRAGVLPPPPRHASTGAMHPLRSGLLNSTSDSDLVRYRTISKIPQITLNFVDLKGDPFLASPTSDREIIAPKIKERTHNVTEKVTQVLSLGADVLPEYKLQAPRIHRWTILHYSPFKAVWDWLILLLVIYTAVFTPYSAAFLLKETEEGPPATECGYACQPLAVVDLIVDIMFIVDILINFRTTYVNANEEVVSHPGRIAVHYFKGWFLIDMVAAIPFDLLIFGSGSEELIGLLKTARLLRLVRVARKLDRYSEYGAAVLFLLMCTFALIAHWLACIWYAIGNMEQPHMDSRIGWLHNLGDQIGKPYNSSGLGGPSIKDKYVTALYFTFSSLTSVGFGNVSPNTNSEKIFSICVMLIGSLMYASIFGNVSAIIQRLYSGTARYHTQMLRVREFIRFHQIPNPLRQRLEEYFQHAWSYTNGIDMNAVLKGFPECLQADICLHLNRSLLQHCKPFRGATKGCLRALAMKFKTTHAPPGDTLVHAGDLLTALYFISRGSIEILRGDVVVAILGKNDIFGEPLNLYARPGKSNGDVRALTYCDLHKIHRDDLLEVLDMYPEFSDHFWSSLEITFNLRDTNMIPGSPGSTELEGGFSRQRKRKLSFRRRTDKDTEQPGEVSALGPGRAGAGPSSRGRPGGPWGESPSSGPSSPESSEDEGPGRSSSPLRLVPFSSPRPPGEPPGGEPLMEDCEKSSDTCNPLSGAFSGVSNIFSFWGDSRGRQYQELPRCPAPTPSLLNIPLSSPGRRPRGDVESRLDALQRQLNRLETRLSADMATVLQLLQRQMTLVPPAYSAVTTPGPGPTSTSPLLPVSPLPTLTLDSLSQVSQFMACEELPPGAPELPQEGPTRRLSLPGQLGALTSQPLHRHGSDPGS
`CC(C)[C@H](NS(=O)(=O)c1cccc(Cl)c1)C(=O)OCC(=O)N1CCN(c2ccccc2)CC1`: the “hERG current change (%, negative = inhibition) at 1uM” value came to 4.53%.
As for `CCc1ccc(C(=O)Nc2ccc3c(c2)n(C)c(=O)n3C)cc1`, the “hERG current change (%, negative = inhibition) at 1uM” value is listed as -0.871%.
As for `CCOC(=O)Cc1csc(SCC(=O)N2CCN(c3ccc(OC)cc3)CC2)n1`, the “hERG current change (%, negative = inhibition) at 1uM” value is -2.4%.
In the case of `COc1ccc(-n2c(C)n[nH]c2=O)cc1`, the “hERG current change (%, negative = inhibition) at 1uM” value stood at 0.526%.
Take `COc1ccccc1-n1c(C)nc(=O)c(-c2ccccc2)c1C`: the “hERG current change (%, negative = inhibition) at 1uM” value was determined as 18.8%.
With `COc1ccccc1C(=O)NCC(=O)Nc1ccccc1`, the “hERG current change (%, negative = inhibition) at 1uM” value is on record as 4.61%.
As for `O=C(NCCN1CCCC1)c1cc(-c2ccncc2)nc2ccc(S(=O)(=O)N3CCOCC3)cc12`, the “hERG current change (%, negative = inhibition) at 1uM” value was 12.6%.
As for `CSc1ccc(/C=C2\C(=N)N3N=C(CC(=O)N4CCOCC4)SC3=NC2=O)cc1`, the “hERG current change (%, negative = inhibition) at 1uM” value came out at 14%.
`Cc1cccc(NC(=O)CC2NCCNC2=O)c1` (stereo not shown): the “hERG current change (%, negative = inhibition) at 1uM” value was 16.5%.
For the compound `COc1ccc(N2CCN(Cc3nnnn3C3CCCCC3)CC2)cc1`, the “hERG current change (%, negative = inhibition) at 1uM” value amounted to 12.6%.
To `O=C(NCCCn1ccnc1)C(=O)NCC1OCCN1S(=O)(=O)c1ccc(Cl)cc1` (stereo not shown) belongs 23.6%.
With `Cc1cc(C)nc(SC2CC(=O)N(c3ccc(C)c(C)c3)C2=O)n1` (stereo not shown), the “hERG current change (%, negative = inhibition) at 1uM” value worked out at 12.1%.
`O=C(NCc1ccc(Cl)cc1)C1CCN(C(=O)c2ccco2)CC1`: the “hERG current change (%, negative = inhibition) at 1uM” value is listed as -6%.
As for `CCOc1cc(C(=O)N2CCC3(CC2)OCCO3)cc(OCC)c1OCC`, the “hERG current change (%, negative = inhibition) at 1uM” value was -5.42%.
To `CCc1ccc(C(=O)COC(=O)CNC(=O)COc2ccccc2)cc1` belongs -18.6%; to `COc1ccc(-c2nc3ccc(C)cc3c(=O)o2)cc1OC`, 6.35%; to `O=S(=O)(c1ccccc1)c1nc(Cc2ccccc2)oc1N1CCOCC1`, 15.3%.
As for `Cc1cc2cc(CNC(=O)CC(C)C)ccc2n1C`, the “hERG current change (%, negative = inhibition) at 1uM” value worked out at 12.6%.
On to `Cn1c(N2CCOCC2)nc2c1c(=O)n(Cc1ccc(Cl)cc1)c(=O)n2C`, for which the “hERG current change (%, negative = inhibition) at 1uM” value is given as -1.41%.
Regarding `c1ccc2c(c1)ccc1nnnn12`, the “hERG current change (%, negative = inhibition) at 1uM” value came to 11.3%.
Take `CCOc1ccc(N(CC(=O)NC(C)(C)C)C(=O)CCC(=O)Nc2nccs2)cc1`: the “hERG current change (%, negative = inhibition) at 1uM” value was 3.66%.
To `O=C(Nc1cccc(NC(=O)c2ccco2)c1)c1ccc2c(c1)OCCO2` belongs 4.23%; to `CN(C)c1ccc(/C=C/C(O)=C2/C(=O)N(C)C3(C)CC2c2ccccc2O3)cc1` (stereo not shown), 18%; to `CCn1cc(S(=O)(=O)CC(=O)Nc2ccc3c(c2)OCCO3)c2ccccc21`, -0.708%.
Turning to `Cc1ccc2nc(-c3ccccc3Cl)cc(C(=O)Nc3cc(C)on3)c2c1`, the “hERG current change (%, negative = inhibition) at 1uM” value is 0.124%.
